Measured values as given in patent US20240335465A1 (UNIVERSITY OF VIRGINIA PATENT FOUNDATION, published 2024).

Target: endogenous ATM in immortalized MEFs (mouse, UniProt Q62388 2-3066)
Test: co-immunoprecipitation: anti-HA IP from HA-cGAS-reconstituted cGAS-/- MEFs with or without doxorubicin, immunoblot for ATM

Chain of UniProt Q62388 (Q62388 2-3066 limits assumed): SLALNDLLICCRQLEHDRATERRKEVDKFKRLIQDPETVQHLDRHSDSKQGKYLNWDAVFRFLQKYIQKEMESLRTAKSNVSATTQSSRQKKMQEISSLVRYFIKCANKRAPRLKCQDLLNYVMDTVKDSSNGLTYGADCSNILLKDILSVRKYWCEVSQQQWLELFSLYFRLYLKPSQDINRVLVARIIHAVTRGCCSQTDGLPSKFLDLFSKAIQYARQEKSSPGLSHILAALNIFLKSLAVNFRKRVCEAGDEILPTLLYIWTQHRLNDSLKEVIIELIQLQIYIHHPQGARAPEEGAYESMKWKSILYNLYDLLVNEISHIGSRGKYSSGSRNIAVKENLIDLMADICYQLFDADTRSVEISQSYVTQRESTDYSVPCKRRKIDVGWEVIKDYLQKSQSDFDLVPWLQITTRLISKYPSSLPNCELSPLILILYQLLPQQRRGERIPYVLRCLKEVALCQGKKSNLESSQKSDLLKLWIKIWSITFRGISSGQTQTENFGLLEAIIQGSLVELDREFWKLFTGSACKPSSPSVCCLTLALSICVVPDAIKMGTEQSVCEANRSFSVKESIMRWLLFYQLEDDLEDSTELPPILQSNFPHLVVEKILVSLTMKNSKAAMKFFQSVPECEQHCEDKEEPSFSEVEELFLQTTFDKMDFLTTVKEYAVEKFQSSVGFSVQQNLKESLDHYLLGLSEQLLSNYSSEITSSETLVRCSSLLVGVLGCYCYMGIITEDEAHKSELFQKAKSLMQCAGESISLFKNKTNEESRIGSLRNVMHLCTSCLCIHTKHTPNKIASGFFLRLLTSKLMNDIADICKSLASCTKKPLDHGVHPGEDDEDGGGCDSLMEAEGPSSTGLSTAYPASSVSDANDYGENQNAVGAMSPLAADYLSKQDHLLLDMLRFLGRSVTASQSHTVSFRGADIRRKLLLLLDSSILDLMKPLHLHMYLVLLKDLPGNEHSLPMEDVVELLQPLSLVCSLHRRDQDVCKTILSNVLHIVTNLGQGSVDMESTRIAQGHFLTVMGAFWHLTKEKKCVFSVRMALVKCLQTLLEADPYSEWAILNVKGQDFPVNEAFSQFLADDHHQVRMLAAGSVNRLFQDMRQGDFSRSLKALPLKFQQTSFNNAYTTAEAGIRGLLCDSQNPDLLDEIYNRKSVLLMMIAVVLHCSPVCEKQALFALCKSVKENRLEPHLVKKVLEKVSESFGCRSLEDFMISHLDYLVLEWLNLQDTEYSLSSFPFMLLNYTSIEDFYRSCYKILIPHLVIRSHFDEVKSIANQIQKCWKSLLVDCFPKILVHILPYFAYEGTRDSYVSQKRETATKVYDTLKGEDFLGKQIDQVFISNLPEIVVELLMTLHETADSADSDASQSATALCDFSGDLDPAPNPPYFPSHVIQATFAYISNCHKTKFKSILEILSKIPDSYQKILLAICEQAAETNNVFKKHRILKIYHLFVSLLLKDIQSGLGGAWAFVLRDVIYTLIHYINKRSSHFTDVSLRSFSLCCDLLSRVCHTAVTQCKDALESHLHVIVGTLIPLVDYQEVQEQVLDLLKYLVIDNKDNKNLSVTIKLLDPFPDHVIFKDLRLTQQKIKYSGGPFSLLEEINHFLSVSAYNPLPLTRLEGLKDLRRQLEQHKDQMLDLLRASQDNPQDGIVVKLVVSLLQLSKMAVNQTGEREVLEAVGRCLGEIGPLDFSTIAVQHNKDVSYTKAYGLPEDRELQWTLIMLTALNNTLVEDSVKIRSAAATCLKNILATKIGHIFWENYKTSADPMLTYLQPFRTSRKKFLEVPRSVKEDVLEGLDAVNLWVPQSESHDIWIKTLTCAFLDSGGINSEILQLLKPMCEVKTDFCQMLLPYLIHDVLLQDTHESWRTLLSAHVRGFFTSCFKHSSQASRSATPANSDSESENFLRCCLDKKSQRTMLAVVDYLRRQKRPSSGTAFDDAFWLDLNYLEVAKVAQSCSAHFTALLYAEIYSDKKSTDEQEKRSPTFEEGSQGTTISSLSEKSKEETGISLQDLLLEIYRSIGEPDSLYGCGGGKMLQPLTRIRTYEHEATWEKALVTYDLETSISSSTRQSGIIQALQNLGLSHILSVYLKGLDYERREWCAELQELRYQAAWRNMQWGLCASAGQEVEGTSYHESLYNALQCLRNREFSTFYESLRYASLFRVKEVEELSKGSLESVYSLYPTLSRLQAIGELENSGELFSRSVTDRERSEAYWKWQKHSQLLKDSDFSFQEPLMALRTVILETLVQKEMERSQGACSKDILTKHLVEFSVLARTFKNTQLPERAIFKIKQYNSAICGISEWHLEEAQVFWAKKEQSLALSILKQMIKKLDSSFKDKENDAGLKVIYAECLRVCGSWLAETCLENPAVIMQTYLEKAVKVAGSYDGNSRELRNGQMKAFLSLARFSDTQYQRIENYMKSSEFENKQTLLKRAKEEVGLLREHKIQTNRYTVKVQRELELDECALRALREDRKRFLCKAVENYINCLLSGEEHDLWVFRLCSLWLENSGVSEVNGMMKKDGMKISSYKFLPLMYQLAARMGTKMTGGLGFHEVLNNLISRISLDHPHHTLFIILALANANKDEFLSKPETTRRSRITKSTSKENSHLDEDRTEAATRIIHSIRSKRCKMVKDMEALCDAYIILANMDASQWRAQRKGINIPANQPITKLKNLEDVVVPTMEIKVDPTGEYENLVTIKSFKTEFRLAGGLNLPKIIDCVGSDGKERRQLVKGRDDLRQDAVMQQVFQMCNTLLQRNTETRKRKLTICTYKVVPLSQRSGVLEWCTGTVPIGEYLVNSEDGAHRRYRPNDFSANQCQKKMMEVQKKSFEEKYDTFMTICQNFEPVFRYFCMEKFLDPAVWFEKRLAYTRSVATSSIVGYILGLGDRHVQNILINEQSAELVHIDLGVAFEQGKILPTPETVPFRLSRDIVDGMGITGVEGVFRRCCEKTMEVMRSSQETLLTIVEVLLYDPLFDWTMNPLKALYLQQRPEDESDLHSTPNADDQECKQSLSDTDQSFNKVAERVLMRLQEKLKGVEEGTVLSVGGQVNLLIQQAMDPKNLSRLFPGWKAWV

B1: HA-cGAS in HA-cGAS-reconstituted cGAS-/- immortalized MEFs (enzyme)
chain: not shown
notes: also called nuclear translocated cGAS; not shown: HA tag
binding result: no binding
